Measurements from the supplement of paper PMC12355420.
Where a name gives a salt, the structure may show the parent alone. The list shows a part of the results. Rule as the data show it: active = 0.5 or less and inactive = the rest. Most values come without repeats; read them as rough.

Tests used:
Conditions in all cases: 50 µM; 24 h
[1] = system: HeLa VPS33A reporter cells; assay: relative cell viability (CellMask signal) vs DMSO (fraction of DMSO); higher = less cytotoxic;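 also: primary screen of an FDA-approved drug library in HeLa reporter cells in 96-well format, CellMask signal normalized to DMSO-treated wells set as 1, under 0.5 deemed highly cytotoxic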
[2] = system: HeLa VPS33A R498W KI + HA-SDC1-FLAG; assay: relative GAG core protein HA-SDC1 amount per cell number vs DMSO (fraction of DMSO); higher = more SDC1 (GAG core protein);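 also: HA-SDC1 level read out by In-Cell Western staining with an anti-HA antibody against the N-terminal tag, screening FDA-approved library drugs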
[3] = system: HeLa VPS33A KO + NLuc-VPS33A R498W; assay: relative mutant VPS33A R498W amount (NanoLuc luminescence) vs DMSO (fraction of DMSO); HeLa model of a glycosaminoglycan (GAG) storage disease; KI is knock-in and KO knock-out; SDC1 is syndecan 1; higher = higher mutant VPS33A level;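 also: screen of an FDA-approved drug library, NanoLuc luminescence read after lysing the treated cells, taken as a measure of mutant VPS33A protein stability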

| Structure (SMILES) | relative cell viability [1] | relative GAG core protein HA-SDC1 amount per cell number [2] | relative mutant VPS33A R498W amount [3] |
| --- | --- | --- | --- |
| CC(=O)N[C@H](Cc1ccc2ccccc2c1)C(=O)N[C@H](Cc1ccc(Cl)cc1)C(=O)N[C@H](Cc1cccnc1)C(=O)N[C@@H](CO)C(=O)N[C@@H](Cc1ccc(O)cc1)C(=O)N[C@H](CCCNC(N)=O)C(=O)N[C@@H](CC(C)C)C(=O)N[C@@H](CCCNC(=N)N)C(=O)N1CCC[C@H]1C(=O)N[C@H](C)C(N)=O [Cetrorelix] | 0.868 | inactive: 0.903 | 0.509 |
| Cc1ccccc1C(=O)O [o-Toluic acid] | 1.01 | inactive: 0.921 | 1.38 |
| CC(=O)NC[C@H]1CN(c2ccc(N3CCOCC3)c(F)c2)C(=O)O1 [Linezolid] | 1.01 | inactive: 1.21 | 1.25 |
| CN(C)CCc1c[nH]c2ccc(Cn3cncn3)cc12 [Rizatriptan Benzoate] | 1.12 | inactive: 0.945 | 0.799 |
| COc1cc(Nc2ncc(F)c(Nc3ccc4c(n3)N(COP(=O)(O)O)C(=O)C(C)(C)O4)n2)cc(OC)c1OC [Fostamatinib (R788)] | 1.07 | active: 0.398 | 0.586 |
| Nc1ccn([C@@H]2O[C@H](CO)[C@@H](O)[C@@H]2O)c(=O)n1 [Cytarabine hydrochloride] | 1.24 | inactive: 0.694 | 0.56 |
| CC/C(=C(/CC)c1ccc(O)cc1)c1ccc(O)cc1 [Diethylstilbestrol] | 0.84 | active: 0.178 | 0.938 |
| O=C1C[C@@H](c2ccc(O)c(O)c2)Oc2cc(O)cc(O)c21 [Eriodictyol] | 0.922 | inactive: 0.872 | 0.371 |
| COc1ncnc(NS(=O)(=O)c2ccc(N)cc2)c1OC [Sulfadoxin] | 1.09 | inactive: 0.66 | 1.03 |
| Nc1nc(Cl)nc2c1ncn2[C@@H]1O[C@H](CO)[C@@H](O)[C@@H]1F [Clofarabine] | 1.19 | inactive: 1.17 | 1.05 |
| O=C1c2c(O)cc(O)cc2OC(c2ccc(O)c(O)c2)C1O (configuration not stated) [Taxifolin] | 1.02 | inactive: 1.02 | 0.765 |
| CC1CCc2c(N3CCC(O)CC3)c(F)cc3c(=O)c(C(=O)O)cn1c23 (configuration not stated) [Nadifloxacin] | 0.932 | inactive: 0.997 | 1.27 |
| O=C(O)c1ccc(O)cc1 [4-Hydroxybenzoic acid] | 1.08 | inactive: 0.805 | 1.17 |
| CCOc1cc(N)c(Cl)cc1C(=O)NCC1CN(Cc2ccc(F)cc2)CCO1 (configuration not stated) [Mosapride Citrate] | 1.33 | inactive: 1.29 | 0.931 |
| Cc1cn[nH]c1 [Fomepizole] | 1.13 | inactive: 1.2 | 1.09 |
| CCCCCCOC(=O)NC(=N)c1ccc(NCc2nc3cc(C(=O)N(CCC(=O)OCC)c4ccccn4)ccc3n2C)cc1 [Dabigatran etexilate mesylate] | 0.867 | active: 0.473 | 0.242 |
| CCN(CC)CCNC(=O)c1ccc(N)cc1 [Procainamide HCl] | 1.07 | inactive: 0.792 | 1.22 |
| COC(=O)[C@H]1[C@H]2C[C@@H]3c4[nH]c5cc(OC)ccc5c4CCN3C[C@H]2C[C@@H](OC(=O)c2cc(OC)c(OC)c(OC)c2)[C@@H]1OC [Reserpine] | 1.14 | inactive: 3.38 | 0.325 |
| O=C1NC(=O)[C@@H](c2cn3c4c(cccc24)CCC3)[C@@H]1c1c[nH]c2ccccc12 [Tivantinib (ARQ 197)] | 0.93 | active: 0.335 | 0.847 |
| Nc1ccn([C@@H]2O[C@H](CO)[C@@H](O)C2(F)F)c(=O)n1 [Gemcitabine] | 1.19 | inactive: 0.977 | 0.562 |
| Cc1c(S(=O)(=O)O)oc2c1C(=O)C(=O)c1c-2ccc2c1CCCC2(C)C [Tanshinone IIA---sulfonic sodium] | 1.03 | inactive: 0.636 | 1.09 |
| CN1CCCN=C1/C=C/c1cccs1 [Pyrantel Pamoate] | 1.04 | inactive: 0.845 | 1.48 |
| CN1CC[C@@H](NC(=O)Nc2ccc(C#N)cc2)C[C@@H]1c1nc2ccccc2[nH]1 | 1.05 | inactive: 0.576 | 0.678 |
| CN(C/C=C/c1ccccc1)Cc1cccc2ccccc12 [Naftifine HCl] | 1.07 | inactive: 0.586 | 0.404 |
| CCC1(c2c[nH]cn2)Cc2ccccc2C1 [Atipamezole hydrochloride] | 1.18 | inactive: 0.601 | 0.615 |
| CCOC(=O)c1cc(O)c(O)c(O)c1 [Ethyl gallate] | 0.97 | inactive: 0.874 | 1.18 |
| O=C(/C=C/C=C/c1ccc2c(c1)OCO2)N1CCCCC1 [Piperine] | 1.01 | inactive: 0.736 | 0.72 |

| Structure (SMILES) | relative cell viability [1] | relative GAG core protein HA-SDC1 amount per cell number [2] | relative mutant VPS33A R498W amount [3] |
| --- | --- | --- | --- |
| N#Cc1ccnc(N2C(=O)CC[C@H]2C(=O)N(c2cncc(F)c2)[C@H](C(=O)NC2CC(F)(F)C2)c2ccccc2Cl)c1 | 1.05 | inactive: 0.864 | 1.22 |
| N=C(N)c1ccc(N=NNc2ccc(C(=N)N)cc2)cc1 [Diminazene Aceturate] | 1.06 | inactive: 0.55 | 0.66 |
| CCS(=O)(=O)CCn1c([N+](=O)[O-])cnc1C [Tinidazole] | 0.982 | inactive: 0.842 | 1.19 |
| CC=CC1=C(C(=O)O)N2C(=O)[C@@H](NC(=O)[C@H](N)c3ccc(O)cc3)[C@H]2SC1 [Cefprozil] | 1.02 | inactive: 1.06 | 1.13 |
| CCCc1nc(C)c2c(=O)nc(-c3cc(S(=O)(=O)N4CCN(CC)CC4)ccc3OCC)[nH]n12 [Vardenafil HCl Trihydrate] | 0.793 | inactive: 0.895 | 0.532 |
| NC[C@@H]1O[C@H](O[C@H]2[C@@H](O)[C@H](O[C@@H]3[C@@H](O)[C@H](N)C[C@H](N)[C@H]3O[C@H]3O[C@H](CN)[C@@H](O)[C@H](O)[C@H]3N)O[C@@H]2CO)[C@H](N)[C@@H](O)[C@@H]1O [Neomycin sulfate] | 0.89 | inactive: 1.27 | 0.868 |
| OC(CCCN1CCCCC1)(c1ccccc1)c1ccccc1 [Diphenidol HCl] | 1.03 | inactive: 0.736 | 0.807 |
| N[C@@H](Cc1ccc(O)c(O)c1)C(=O)O [Levodopa] | 1.15 | inactive: 1.5 | 0.682 |
| CS(=O)(=O)c1ccc(C2=C(c3ccccc3)C(=O)OC2)cc1 [Rofecoxib] | 1.44 | inactive: 0.587 | 1.14 |
| COc1ccc([C@@H]2OC[C@H]3[C@@H]2CO[C@@H]3c2ccc3c(c2)OCO3)cc1OC [Fargesin] | 0.934 | inactive: 0.667 | 0.699 |
| C[C@@H]1O[C@@H](OC[C@H]2O[C@@H](Oc3c(-c4ccc(OCCO)c(OCCO)c4)oc4cc(OCCO)cc(O)c4c3=O)[C@H](O)[C@@H](O)[C@@H]2O)[C@H](O)[C@H](O)[C@H]1O [Troxerutin] | 1.07 | inactive: 1.05 | 1.55 |
| Nc1cc(C(Cl)=C(Cl)Cl)c(S(N)(=O)=O)cc1S(N)(=O)=O [Clorsulon] | 1.07 | inactive: 0.979 | 1.34 |
| Nc1ncnc2c1ncn2[C@@H]1O[C@H](COP(=O)(O)OP(=O)(O)OP(=O)(O)O)[C@@H](O)[C@H]1O [Adenosine 5-triphosphate] | 1.18 | inactive: 0.99 | 1.09 |
| COc1ccccc1Oc1c(NS(=O)(=O)c2ccc(C(C)(C)C)cc2)nc(-c2ncccn2)nc1OCCO [Bosentan Hydrate] | 1.29 | inactive: 0.952 | 1.19 |
| COc1ccnc(C[S+]([O-])c2nc3cc(OC(F)F)ccc3[nH]2)c1OC (configuration not stated) [Pantoprazole] | 1.08 | inactive: 0.743 | 0.85 |
| CCNC(=O)CCC/C=C\C[C@@H]1[C@@H](/C=C/[C@@H](O)CCc2ccccc2)[C@H](O)C[C@@H]1O [Bimatoprost] | 0.933 | inactive: 0.851 | 1.41 |
| O=C(O)c1cc(O)c(O)c(O)c1 [Gallic acid] | 1.03 | inactive: 0.994 | 1.7 |
| CC[C@H](C)[C@H](NC(=O)[C@H](Cc1ccc(O)cc1)NC(=O)[C@@H](NC(=O)[C@H](CCCNC(=N)N)NC(=O)[C@@H](N)CC(=O)O)C(C)C)C(=O)N[C@@H](Cc1cnc[nH]1)C(=O)N1CCC[C@H]1C(=O)N[C@@H](Cc1ccccc1)C(=O)O [Angiotensin II] | 1.4 | inactive: 0.905 | 0.848 |
| Cc1cc(C)cc(NC(=O)Cc2ccc(OC(C)(C)C(=O)O)cc2)c1 [Efaproxiral Sodium] | 1 | inactive: 0.827 | 1.06 |
| CC(CNC(=O)c1cccnc1)NC(=O)c1cccnc1 (configuration not stated) [Nicaraven] | 0.864 | inactive: 0.984 | 1.22 |
| COc1cnc(NS(=O)(=O)c2ccc(N)cc2)nc1 [Sulfameter] | 1.14 | inactive: 0.734 | 0.93 |
| O=C(Nc1ccc([N+](=O)[O-])cc1Cl)c1cc(Cl)ccc1O [Niclosamide] | 1.03 | inactive: 0.632 | 1.58 |
| CC[C@H]1OC(=O)[C@H](C)[C@@H](O[C@H]2C[C@@](C)(OC)[C@@H](O)[C@H](C)O2)[C@H](C)[C@@H](O[C@@H]2O[C@H](C)C[C@H](N(C)C)[C@H]2O)[C@](C)(O)C[C@@H](C)CN(C)[C@H](C)[C@@H](O)[C@]1(C)O [Azithromycin Dihydrate] | 1.02 | inactive: 1.2 | 1.07 |
| NC(CO)C(=O)O (racemic) [DL-Serine] | 0.989 | inactive: 0.919 | 0.927 |
| Cc1ncc(CO)c(CO)c1O [Pyridoxine] | 1.23 | inactive: 0.745 | 1.01 |
| C[N+](C)(C)CC(=O)O [Betaine] | 1.07 | inactive: 1.04 | 1.42 |
| Nc1nc(NC2CC2)c2ncn([C@H]3C=C[C@@H](CO)C3)c2n1 [Abacavir] | 1.12 | inactive: 0.752 | 0.832 |
